The text below walks through data of ChEMBL document CHEMBL4888484, “Replenishing the malaria drug discovery pipeline: Screening and hit evaluation of the MMV Hit Generation Library 1 (HGL1) against asexual blood stage Plasmodium falciparum ,using a nano luciferase reporter read-out” (2022).

Each structure is given as a SMILES string. Among all 150,000 compounds or so, about 540 (0.36%) showed an effect of 50% or more. The list shows a part of the results.

The subject of this test is Plasmodium falciparum. As to the kind of experiment: Primary screen in NF54 nanoGlo assay, in single point, at 2uM, 72h; a lower Z score goes with more inhibition. The format is functional, Erythrocyte. To be noted: timepoint 72 hour.
For `N#Cc1ccc(F)c(CNC(=O)N2CCO[C@H](c3ccsc3)C2)c1`, the “% Inhibition” value was -1% and the Z score stood at 0.15.

For the compound `CCC(=O)N1CCN(c2nc(-c3ccccc3)nc(CC)c2Cc2cccc(Cl)c2)CC1`, the “% Inhibition” value is given as -25% and the Z score turned out to be 2.24.

Consider `Cc1cc(F)ccc1CN(C)C(=O)c1ccc2c(c1)C(=O)NCCO2`, for which the “% Inhibition” value is on record as -8% and the Z score is 1.62.

In the case of `Cc1ccc(C(=O)N2CCC[C@H]2c2nc3ccccc3s2)c(=O)[nH]1`, the “% Inhibition” value is -13% and the Z score was 1.71.

For `CCCOC1(c2noc([C@H]3CCOC3)n2)CCCCC1`, the “% Inhibition” value was 8% and the Z score is -1.09.

With `CCOCC(=O)NCc1cc2n(n1)CCCNC2`, the “% Inhibition” value came out at 5% and the Z score is given as -0.62.

For `CCc1ncc(C(=O)NCc2cc(-c3cccc(Cl)c3)no2)cn1`, the “% Inhibition” value is 3% and the Z score is on record as -0.56.

As for `Cc1ccnc(C[C@H](C)N2CCC(N3CCC(C(=O)NC4CC4)CC3)CC2)c1`, the “% Inhibition” value was -5% and the Z score is on record as 0.77.

As to `O=C1CCc2cc(S(=O)(=O)N3C[C@@H]4[C@@H]5CC[C@@H](C5)[C@@H]4C3)ccc2N1`, the “% Inhibition” value is listed as -9% and the Z score was determined as 1.06.

As to `Cc1cc(C)c(CNC(=O)c2cnn(C)c2C)c(=O)[nH]1`, the “% Inhibition” value is on record as -9% and the Z score is recorded as 1.13.

As for `C=CCCC(=O)N1CC[C@H](Oc2ccnc(C)n2)C1`, the “% Inhibition” value is given as -5% and the Z score stood at 0.77.

For `Clc1ccc(-c2cc3c(N4CCC(N5CCCCC5)CC4)nccn3n2)cc1`, the “% Inhibition” value is on record as 2% and the Z score is on record as -0.32.

In the case of `CCOc1ccc(-c2c(-c3ccccc3)ncn2C[C@H]2CCCO2)cc1CO`, the “% Inhibition” value is reported as -7% and the Z score came out at 1.01.

For `CC(C)CN1CCN(c2nccnc2N(C)C)CC1=O`, the “% Inhibition” value is -17% and the Z score was determined as 1.93.

Turning to `O=C(O)Cn1nc(C2CC2)c2c(C(F)(F)F)cc(-c3ccccc3)nc21`, the “% Inhibition” value was 31% and the Z score was -3.53.

On to `Cc1cc(CC(=O)N2CC(c3ccc(F)cc3)CC2C)no1` (stereo unspecified), for which the “% Inhibition” value was -14% and the Z score amounted to 2.1.

Regarding `c1ccc(Oc2ccc(-c3ccc4ccccc4n3)cc2)cc1`, the “% Inhibition” value is -2% and the Z score was determined as 0.32.

Take `CC(NC(N)=O)C(=O)NCCC(C)c1ccccc1` (stereo unspecified): the “% Inhibition” value was -10% and the Z score came out at 1.33.

As to `C[C@H]1CCN(C(=O)c2cncc(Br)c2)c2ccccc2N1`, the “% Inhibition” value was -1% and the Z score worked out at 0.1.

As for `CC(C)Cn1c(CC2(CC(=O)N3CCN(C)C(=O)C3)CCCC2)nc2cccnc21`, the “% Inhibition” value is -2% and the Z score amounted to 0.44.

Consider `CC(C)C(C)NC(=NCc1ccccc1)NCC1CCOC1` (stereo unspecified), for which the “% Inhibition” value is given as -8% and the Z score came out at 1.

As to `Cc1nc(C)c(C(=O)N(CC(=O)N2CCCCCC2)C(C)C)o1`, the “% Inhibition” value is listed as 3% and the Z score is given as -0.43.

With `O=C(NC1CCN(Cc2cccs2)CC1)c1cc(=O)n(-c2ccccc2)[nH]1`, the “% Inhibition” value came to 4% and the Z score is recorded as -0.72.

Turning to `Cc1cc(CNC(=O)c2ccc3c(c2)OCO3)nn1C`, the “% Inhibition” value is -7% and the Z score came to 1.02.

As to `CCCn1c(C)cnc1CCNC(=O)CC`, the “% Inhibition” value is listed as 0% and the Z score is -0.02.

In the case of `Cc1cc(COc2ccccc2)oc1C(=O)N(C)Cc1snnc1C`, the “% Inhibition” value is listed as 7% and the Z score is recorded as -1.03.

Take `Cc1nc2ccc(N(C)S(=O)(=O)c3cc(C(=O)O)cs3)cc2s1`: the “% Inhibition” value is given as 33% and the Z score is recorded as -1.2.

As for `Cc1noc([C@H](C)N(C)Cc2ccc(OCCn3ccnc3)cc2)n1`, the “% Inhibition” value is listed as -16% and the Z score was determined as 1.7.

For `C[C@H]1CN(C(=O)c2csc(CN)n2)c2ccccc21`, the “% Inhibition” value was -8% and the Z score amounted to 0.91.

`Nc1nccnc1C(=O)N1CCCCCC1CC(O)c1ccccc1` (stereo unspecified): the “% Inhibition” value is recorded as -11% and the Z score is 1.49.

Take `CC(C)N(Cc1cc(NC(=O)c2cccs2)ccc1N(C)C)C(=O)c1cccc(F)c1`: the “% Inhibition” value is on record as -8% and the Z score is 1.58.

On to `O=C(Nc1ccc2c(c1)OCO2)c1c[nH]nc1C1CC1`, for which the “% Inhibition” value is recorded as -10% and the Z score worked out at 1.87.

With `O=C(NCCc1nnc2n1CCCC2)c1ccc(Cl)c2occc12`, the “% Inhibition” value is on record as -10% and the Z score is recorded as 1.96.

Take `COc1ccc(CN(C)[C@H]2CS(=O)(=O)C[C@@H]2O)cc1Cn1cccn1`: the “% Inhibition” value was -6% and the Z score worked out at 1.24.

Turning to `CCOC(=O)N1CC[C@H](NCc2nc(COC)no2)C1`, the “% Inhibition” value worked out at 1% and the Z score is -0.22.

As to `N#Cc1cccc(CN2CCCO[C@@H](CN3CCCC3)C2)c1`, the “% Inhibition” value is given as 0% and the Z score amounted to 0.02.

With `CCOC(=O)C1CCN(C(=O)CN2C(=O)C(C)(C)c3cc(C)ccc32)CC1`, the “% Inhibition” value was -15% and the Z score was determined as 2.5.

As to `CN(Cc1cnc(N2CCCC2)s1)C1Cc2ccccc2C1`, the “% Inhibition” value is on record as 0% and the Z score is on record as 0.04.

For the compound `CCCCc1nnc(NS(=O)(=O)c2ccc(OC)c(Cl)c2)o1`, the “% Inhibition” value is -17% and the Z score is 2.06.

In the case of `CN(CCC(=O)Nc1ccc2c(c1)CCC2)Cc1cnccn1`, the “% Inhibition” value is given as -9% and the Z score came to 1.54.

For the compound `Cc1cc(N2C[C@H]3CCN(Cc4cc5ccccc5o4)[C@H]3C2)ccn1`, the “% Inhibition” value is reported as -8% and the Z score amounted to 1.42.

`COc1ccc(-c2cc(O)nc(C)n2)c(OC)n1`: the “% Inhibition” value was 8% and the Z score is -1.53.

In the case of `Cc1ccc(Cl)cc1N1CCN(C(=O)c2c(C)noc2C(C)C)CC1`, the “% Inhibition” value is listed as -15% and the Z score is given as 2.1.

A word on the % Inhibition: it is the relative decrease from the control value, in per cent.
